# Measurements published in PubChem BioAssay AID488969 (Vanderbilt High Throughput Screening Facility, 2010).
# The full ranking holds about 110,000 compounds; the median of “z-score” is about -0.1, and the highest 2% start at about 2. Some of the results follow.
# Target: Metabotropic glutamate receptor 8 (Rattus norvegicus) (UniProt P70579)
# Test: mGluR8 Gi/Go-coupled signaling modulation – cell-based, rat, thallium flux, HTS, primary screen (AID 488969)
# Details: HEK293 rat mGluR8, GIRK (G protein-gated inwardly rectifying potassium channel) thallium flux, FluoZin2; at 10 µM; stronger effect = higher value; submaximal glutamate (EC20) added with thallium
# Chain of UniProt P70579 (P70579 whole entry, looked up): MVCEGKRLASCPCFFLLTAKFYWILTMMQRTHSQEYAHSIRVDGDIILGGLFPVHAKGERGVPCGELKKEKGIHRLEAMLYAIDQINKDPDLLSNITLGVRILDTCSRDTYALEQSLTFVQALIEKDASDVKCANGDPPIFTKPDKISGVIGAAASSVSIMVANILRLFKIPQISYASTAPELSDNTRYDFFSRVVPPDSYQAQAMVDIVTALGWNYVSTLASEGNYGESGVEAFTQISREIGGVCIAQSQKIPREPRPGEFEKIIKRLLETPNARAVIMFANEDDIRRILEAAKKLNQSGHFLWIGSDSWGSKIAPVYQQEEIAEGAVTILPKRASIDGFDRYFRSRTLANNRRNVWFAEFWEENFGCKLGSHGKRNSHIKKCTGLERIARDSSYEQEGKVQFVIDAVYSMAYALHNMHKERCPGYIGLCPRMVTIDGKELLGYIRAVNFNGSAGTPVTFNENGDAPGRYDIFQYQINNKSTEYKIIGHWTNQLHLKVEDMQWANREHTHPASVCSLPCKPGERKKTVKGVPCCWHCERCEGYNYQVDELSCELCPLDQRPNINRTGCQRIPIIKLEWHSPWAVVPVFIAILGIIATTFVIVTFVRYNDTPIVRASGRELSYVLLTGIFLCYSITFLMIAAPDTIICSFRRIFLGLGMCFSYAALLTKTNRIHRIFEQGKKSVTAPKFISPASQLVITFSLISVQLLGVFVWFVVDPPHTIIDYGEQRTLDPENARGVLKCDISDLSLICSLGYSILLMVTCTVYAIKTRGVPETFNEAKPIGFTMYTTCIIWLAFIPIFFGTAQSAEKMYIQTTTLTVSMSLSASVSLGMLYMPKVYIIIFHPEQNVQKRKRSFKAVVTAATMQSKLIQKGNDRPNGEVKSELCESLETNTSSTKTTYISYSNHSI
row,SMILES,z-score
1,CC1=NC(=O)C(N=Nc2cccc(C(=O)O)c2)N1c1ccccc1 (stereo not drawn),-0.167
2,O=C(Nn1c(C2CCCCC2)nc2ccccc2c1=O)c1cc(Cl)ccc1[N+](=O)[O-],0.0592
3,Cn1nc(C(=O)NC2CCCCC2)c2ccccc2c1=O,-0.288
4,c1ccc(-c2ccc(OCCCn3cncn3)cc2)cc1,0.066
5,COc1ccc(S(=O)(=O)N2CC3CCCN3c3cc(C(F)(F)F)ccc32)cc1 (stereo not drawn),-0.745
6,CCc1ccc(/C=C2\CN(CC)Cc3c2nc2ccccc2c3C(=O)O)cc1,-0.0446
7,Cc1occc(=O)c1OC(=O)Nc1ccccc1,-0.232
8,CC1SCC(=O)N(CC(=O)NCc2ccccc2)C1=O (stereo not drawn),-0.233
9,CC(C)NC(=O)NC(=O)COC(=O)c1ccccc1F,-0.0834
10,COc1ccc(C(=O)O)cc1S(=O)(=O)N(C)CCc1cccnc1,-0.129
11,CCc1cc(OCCCCNCc2ccccc2)ccc1Cl,0.167
12,O=C(NCC1CCCO1)C1CCN(C(=O)c2ccc(Cl)cc2)CC1 (stereo not drawn),-0.284
13,Cc1ccccc1NC(=O)c1cnc2ccccn2c1=O,-0.233
14,CCOc1ccc(S(=O)(=O)N(C)c2ccc(OCC(=O)Nc3nc(-c4cc(OC)ccc4OC)cs3)cc2)cc1,-0.389
15,CC(=O)Nc1ccc(N2C(=O)CCC2=O)cc1C,0.00186
16,O=C(CSc1nnc(-c2cccnc2)n1Cc1ccco1)N1c2ccccc2Sc2ccccc21,-0.115
17,COc1ccc(NS(=O)(=O)c2ccc(OCC(=O)N3CCOCC3)cc2)cc1,0.045
18,O=C(COC(=O)c1cccnc1Nc1cccc(C(F)(F)F)c1)NCc1ccc2c(c1)OCO2,-0.129
19,Clc1ccc(OCCCCSc2ncccn2)cc1,0.674
20,COCC(=O)c1[nH]c2ccccc2c1C,-0.0109
21,Cc1nc2ccc(NC3=NCCCCC3)cc2s1,0.806
22,O=C1CCC([N+](=O)[O-])C(c2ccccc2Cl)N1 (stereo not drawn),-0.399
23,Cc1cccc(Oc2sc(C(=O)c3ccccc3)c(N)c2C#N)c1C,-0.295
24,O=C(Nc1ccc2c(c1)OCCO2)c1cccs1,-0.281
25,COc1cccc(CNC(=O)C2CCCN(c3nn4c(=O)cc(C)nc4s3)C2)c1OC (stereo not drawn),-0.214

row,SMILES,z-score
1,COc1ccc(-n2c(COc3ccc4ccccc4c3)nnc2SCC(=O)NCc2ccco2)cc1,0.832
2,COc1ccc(/C=C(/NC(=O)c2ccccc2)c2nc3ccc(Cl)cc3[nH]2)cc1OC,-0.329
3,Cc1cccc(CN2C(=O)N/C(=C/c3cc(C)n(-c4cc(C)ccn4)c3C)C2=O)c1,-0.273
4,COc1cccc(C(=O)Oc2cc(-c3ccccc3)no2)c1,-0.361
5,O=C(c1ccc(COc2ccccc2Br)o1)N1CCN(c2ccccn2)CC1,-1.04
6,Cc1ccc(C(=O)COC(=O)CCC(=O)NC2CCCCC2)cc1C,-0.0803
7,O=C(O)CCC(=O)Nc1ccccc1C(=O)NC1CCCCC1,-0.185
8,CC(=O)Nc1ccc(S(=O)(=O)N2CCOCC2)cc1,-1.1
9,COC(=O)c1cn(C(=O)c2cccs2)c2ccccc12,0.27
10,COC(=O)c1oc2ccc(Cl)cc2c1NC(C)=O,0.415
11,COc1ccc(NC(=S)Nc2ccc(N)c([N+](=O)[O-])c2)cc1,-0.16
12,CCOC(=O)Nc1sc2c(c1C#N)CCCC2,0.504
13,COc1cc(=O)n2c(-c3ccccc3)csc2n1,0.369
14,O=c1cc(O)c(-c2ccccc2Cl)c(Cl)[nH]1,-0.193
15,Cc1ccc(-c2nn3c(C)nnc3s2)cc1NC(=O)c1cccs1,-0.72
16,CCCC(c1nnnn1CC(=O)OCC)N(Cc1cc2ccc(C)cc2[nH]c1=O)C1CCCC1 (stereo not drawn),-0.0222
17,CC(C)(C)c1cc(C(=O)NCc2ccccc2)ccn1,-0.233
18,CCOC(=O)c1c(/N=C/N(C)C)sc(/C=N/Nc2ccccc2)c1-c1ccccc1,-0.237
19,Cc1cccc(-c2nc(CN3CCCC(C(=O)NC4CCCCC4)C3)c(C)o2)c1 (stereo not drawn),-2.43
20,Cc1cc(=O)n(C)c(=O)n1CCCCCCOc1ccc([N+](=O)[O-])cc1,0.0833
21,CCOC(=O)c1c(C)n(C)c2ccc(O)c(CN3CCN(C)CC3)c12,0.0797
22,Cc1nnc(-c2cnn(C)c2N)n1Cc1ccccc1,0.248
23,CCS(=O)(=O)N1CCN(c2ccccc2F)CC1,0.337
24,NCCc1nnc(SCc2ccccc2F)o1,0.00316
25,Cc1cccc(NS(=O)(=O)c2cc(C(=O)OC(C)C(=O)NCc3ccc4c(c3)OCO4)ccc2C)c1 (stereo not drawn),-0.277

row,SMILES,z-score
1,CCOc1ccc(-c2nc(C#N)c(N3CCN(CC)CC3)o2)cc1,-1.03
2,CCCCCCn1ccc(=N)cc1,0.937
3,O=C1NC(=O)C(Nc2cccc3ccccc23)S1 (stereo not drawn),-0.127
4,COc1cccc2cc(C(=O)NC3CC(C)(C)NC(C)(C)C3)c(=O)oc12,0.914
5,CCN1CCN(c2ncnc3c2oc2nc(C)c4c(c23)CC(C)(C)OC4)CC1,-0.192
6,CN(C)S(=O)(=O)c1cccc(NC(=O)COC(=O)/C=C/c2ccco2)c1,-0.175
7,COc1ccc(C2CC(c3cccs3)=NN2C(=S)Nc2ccccc2)cc1OC (stereo not drawn),-0.0857
8,O=C1Nc2ccccc2C12OCCCCO2,-0.0325
9,Cc1nc2c(C)cccn2c1/C(O)=C1\C(=O)C(=O)N(CCN2CCOCC2)C1c1cccs1 (stereo not drawn),-0.0823
10,CN(c1cccc(NC(=O)Nc2ccc(Cl)cc2)c1)S(C)(=O)=O,-0.411
11,COc1ccc2c(c1)c(CCN1C(=O)c3ccccc3C1=O)cn2C(=O)c1ccco1,-0.748
12,CCOc1ccc(-c2nc(C#N)c(N3CCCCCC3)o2)cc1,-0.165
13,CCCCC(=O)Nc1nc2c(OC)ccc(OC)c2s1,-0.0216
14,Cc1ccc(S(=O)(=O)NN=C2C3CC4CC(C3)CC2C4)cc1[N+](=O)[O-],-0.336
15,CCOc1ccc2[nH]c(=O)c(CN(Cc3nnnn3CCc3ccccc3)CC3CCCO3)cc2c1 (stereo not drawn),-0.82
16,CCCc1sc(N)nc1-c1ccc(Cl)cc1,-0.288
17,Cc1ccc(NC(=O)C(NC2CCCc3ccccc32)c2ccccc2)cc1Cl (stereo not drawn),-0.174
18,O=C(O)C1CC(=O)N(Cc2ccc3c(c2)OCO3)C1 (stereo not drawn),-0.169
19,Cc1ccc([N+](=O)[O-])cc1NC(=O)CN1CCCCC1,-0.118
20,Cc1ccc2cc(C(c3nnnn3Cc3ccccc3)N3CCc4ccccc43)c(=O)[nH]c2c1 (stereo not drawn),-0.121
21,Cc1cccc(OCC(=O)Nc2nnn(C)n2)c1C,-0.175
22,Oc1[nH]c2ccccc2c1N=Nc1ccc(F)cc1,-0.405
23,C=CCn1c(SCc2nc3ccccc3[nH]2)nnc1-c1cccc(OC)c1,-0.203
